This is an account of results in PubChem BioAssay AID1347073 (National Center for Advancing Translational Sciences (NCATS), 2019).

In all, about 45,000 compounds went through this assay and about 200 (0.44%) were called active. About 7% were inconclusive and are not listed. The call rests on the fitted dose curve; in most records, active means well fitted activation curve with a large enough effect; inconclusive means small, poorly fitted or top-dose-only effect; inactive means no such curve, though single readings can be large or run the other way. The list shows a part of the results.

This test is described as follows: qHTS of TDP-43 Inhibitors: NCGC Sytravon Library Screen. Further: 0% is about no effect; nearly all actives have a fitted effect of over 55% in size. The conditions noted are these: yeast TDP-43 toxicity rescue, BacTiter-Glo growth, 24 h; series mostly up to 46.1 µM; growth rescue (activation): at the top concentration. The method in brief:
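TDP-43-expressing yeast, pregrown in raffinose, seeded at OD600 0.02 in galactose medium with compound for 24 hr at 30 deg C. Growth read by BacTiter-Glo luminescence, so rescue of toxicity appears as activation.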
In general terms: Quantitative high-throughput screening tests each substance at several concentrations.
Turning to `CCC1C(=O)N=C(SCC(=O)Nc2ccc(S(N)(=O)=O)cc2)NC1=O` (stereo not given), the “growth rescue (activation)” value was inactive: -2.52%. Under `O=C(c1ccccc1NS(=O)(=O)c1ccccc1[N+](=O)[O-])N1CCOCC1` stands inactive: -11.4%; under `COc1ccc(CCNC(=O)c2ccc3ccccc3n2)cc1OC`, inactive: 27.8%; under `O=C(COC(=O)CC1c2ccccc2CCN1S(=O)(=O)c1ccc(F)cc1)Nc1ccccc1` (stereo not given), inactive: 14.7%. The result for `Cc1cc(C)c(NC(=O)Cn2nnc(-c3nc(-c4ccncc4)no3)c2N)c(C)c1` reads inactive: 10.9%.

As to `COc1ccc(-c2nc3n(n2)C(c2ccncc2)C(C(N)=O)=C(C)N3)cc1` (stereo not given), the “growth rescue (activation)” value is inactive: -4.67%. Regarding `O=C(Nc1ccc[n+](CC(=O)c2cccc3ccccc23)c1)c1ccccc1`, the “growth rescue (activation)” value was inactive: -25.9%. The result for `C[C@]12CCC(=O)C=C1C=CC1C2CC[C@@]2(C)C1CC[C@@]21CCC(=O)O1` (stereo not given in full) reads inactive: 32.7%. The result for `CCOC(=O)n1c(SCC(=O)N(CC)CC)nc2ccccc21` reads inactive: 12.8%; that for `Nc1ccc(N2CCCC2)c(S(=O)(=O)Nc2cccc(C(F)(F)F)c2)c1`, inactive: -13.9%; that for `CCOc1ccc(C(=O)NC2CCN(CC(=O)NCc3ccccc3)CC2)cc1`, inactive: -8.78%. Regarding `CN1CCN(CC(=O)NC23CC4CC(CC(C4)C2)C3)CC1`, the “growth rescue (activation)” value was inactive: 2.36%. On to `Fc1ccc(C2NCCn3cccc32)cc1` (stereo not given), for which the “growth rescue (activation)” value was inactive: 10.1%. Under `CN1CCN(C(=O)CCN2C(=O)/C(=C\c3ccc(F)cc3)SC2=S)CC1` stands inactive: 10.9%. The result for `Cc1ccc(-c2c[n+](CC(=O)Nc3nc(-c4ccc(F)cc4)cs3)c3n2CCC3)cc1` reads inactive: 16.4%; that for `CCN(CC)C(=O)CSc1ncnc2sccc12`, inactive: 7.52%; that for `CN(C)S(=O)(=O)c1cccc(NC(=S)NCc2ccco2)c1`, inactive: 7.42%. The result for `Cc1ccc(-c2csc(Cc3nc(-c4ccc5c(c4)CCC(=O)N5)cs3)n2)cc1` reads inactive: 7.6%; that for `COc1ccccc1C(=O)CSc1nccn1C`, inactive: -19.2%; that for `COc1ccc(-c2onc3ccc(Br)cc23)cc1`, inactive: 11.3%. Consider `C=CCn1c(SCC(=O)NCC2CCCO2)nc2scc(-c3ccc(OC)cc3)c2c1=O` (stereo not given), for which the “growth rescue (activation)” value was inactive: 27.9%.

With `CCN(/C(N)=N/c1nc(C)cc(C)n1)c1ccccc1`, the “growth rescue (activation)” value is inactive: 0.575%. Under `COc1ccc(N=C(c2ccccc2)c2c(C)[nH]n(-c3ccccc3)c2=O)c(OC)c1` stands inactive: -9.12%; under `COc1ccccc1C(=O)N/C(=C/c1ccccc1)C(=O)Nc1ccc(C(=O)O)cc1`, inactive: 4.28%; under `N#CCCN(C(=O)COC(=O)CCc1ccccc1)c1ccccc1`, inactive: 8.47%.

Consider `Cc1c2ccccc2cc[n+]1CCCS(=O)(=O)[O-]`, for which the “growth rescue (activation)” value is inactive: -19.2%.

With `O=C(CN1CCCCCC1)Nc1ccccc1OC(F)F`, the “growth rescue (activation)” value was inactive: -11.2%. Under `Cc1ccc(C)c(OCC(O)CN2CCN(CCN3C(=O)c4cccc5cccc(c45)C3=O)CC2)c1` (stereo not given) stands inactive: -11.9%. As to `COc1ccc(Cl)cc1Nc1nc2ccc(C)cc2n2cnnc12`, the “growth rescue (activation)” value was inactive: -11.3%.

Consider `Cc1ccc(-n2c(SCC(N)=O)nc3c(oc4ccccc43)c2=O)cc1`, for which the “growth rescue (activation)” value is inactive: -2.13%. Under `COCCn1c(C)cc(C(=O)CN2c3cccc4cccc(c34)S2(=O)=O)c1C` stands inactive: 18.3%.

For the molecule `CCCCCCCCC1=NCCc2c1[nH]c1ccccc21`, the “growth rescue (activation)” value is inactive: -0.638%.

For `CCc1cc2c(=O)c(-c3ccc4c(c3)OCCO4)c(C)oc2cc1OS(C)(=O)=O`, the “growth rescue (activation)” value is inactive: 0.278%. The result for `CCN(c1ccccc1)c1nc2nonc2nc1NCCO` reads inactive: -1.47%; that for `COc1ccc(C2C(C(=O)O)CCC(=O)N2c2ccc(C)cc2)cc1OC` (stereo not given), inactive: -5.31%; that for `COCCCN(C(=S)Nc1ccc(OC)cc1)C(C)c1ccncc1` (stereo not given), inactive: -18.5%. The result for `C/C(=N\Nc1nc(-c2ccccc2O)nc2ccccc12)c1ccccc1` reads inactive: 20.6%; that for `Cc1nnc(SC(C(=O)Nc2cc(Cl)cc(Cl)c2)c2ccccc2)[nH]c1=O` (stereo not given), inactive: 5.57%; that for `COc1ccc(CNCC(O)(c2ccccc2)c2ccccc2)cc1OC`, inactive: 8.17%. Turning to `Cc1c(C(=O)Nc2cccc(Cl)c2)cn2c(nc3ccccc32)c1C#N`, the “growth rescue (activation)” value is inactive: 5.08%.

In the case of `CNc1ccccc1C(C)(C)c1cc(-c2cccc(OC)c2)no1`, the “growth rescue (activation)” value is inactive: 5.58%. Under `CC(C)OCCCNC(=O)C1CCN(S(=O)(=O)N2CCCC2)CC1` stands inactive: -0.767%; under `CC1CCN(C(=O)C2CCN(S(=O)(=O)c3ccc(-n4cnnn4)cc3)CC2)CC1`, inactive: 11.8%. In the case of `O=C(Nc1ccc(F)cc1)c1ccc2snnc2c1`, the “growth rescue (activation)” value was inactive: 13.5%. The result for `COc1cccc(C(CNC(=O)c2ccc(Cl)c(S(=O)(=O)N3CCCC3)c2)N(C)C)c1` (stereo not given) reads inactive: 36.4%.

In the case of `CC1CCCCC1NC(=O)CSc1nnc(CC(=O)Nc2ccccc2F)n1C` (stereo not given), the “growth rescue (activation)” value is inactive: 4.43%. The result for `CC(=O)N/N=C/c1cc(C(C)C)cc(/C=N/NC(C)=O)c1O` reads inactive: -23.9%. The result for `CC(=O)NCC(=O)N(C)C(C(=O)Nc1ccc2c(c1)OCCO2)c1ccccc1` (stereo not given) reads inactive: 36.4%. Under `COc1ccccc1NC(=O)C(=O)N/N=C/c1cccs1` stands inactive: -1.66%; under `Cc1cc(C(=O)N/N=C/c2cc(Br)cc(Br)c2OC(=O)c2cccc(F)c2)n[nH]1`, inactive: 10.4%. In the case of `CCCCc1ccc(NC(=O)COc2ccc(C(=O)Nc3ccccc3OCC)cc2)cc1`, the “growth rescue (activation)” value was inactive: 11.3%.

Turning to `O=C(NCCN1CCN(c2ccccc2)CC1)c1ccccc1F`, the “growth rescue (activation)” value is inactive: 3.35%. For `Cc1cc(C)cc(NC(=O)CNC(c2ccccc2)c2ccccc2)c1`, the “growth rescue (activation)” value was inactive: -18.7%.

On to `Cc1ccc(C(=O)c2ccc(C)cc2)cc1`, for which the “growth rescue (activation)” value was inactive: -8.64%. The result for `COCCSc1ccccc1C(=O)Nc1ccccc1C#N` reads inactive: 0.584%; that for `CC(C)N1CCc2c(sc(NC(=S)NC(=O)c3ccccc3)c2C#N)C1`, inactive: -16.7%. Under `Cc1cccc(NC(=O)CSc2nc3sc(C)cc3c(=O)n2C)c1` stands inactive: -2.82%.

On to `Cc1ccc(-c2nn(-c3ccccn3)c(=O)c3ccccc23)cc1`, for which the “growth rescue (activation)” value is inactive: -24.9%. Under `O=C(NC1CC1)C1CCN(C2CCN(C(=O)CC3=CCCCC3)CC2)CC1` stands inactive: -5.11%; under `COc1ccc(OC)c(/C=C2\SC(=S)N(NS(=O)(=O)c3ccc(C)cc3)C2=O)c1`, inactive: -10.9%.

For `Cc1ccc(C(CC(=O)c2ccc(Cl)cc2)C(=O)O)cc1` (stereo not given), the “growth rescue (activation)” value was inactive: 4.44%. Take `CCN(CC(=O)NCc1ccncc1)S(=O)(=O)c1cc(Cl)ccc1Cl`: the “growth rescue (activation)” value was inactive: 4.92%. Consider `Nc1nnc(-c2cccc(F)c2)s1`, for which the “growth rescue (activation)” value was inactive: -4.41%. The result for `O=C(Nc1cccc(Cl)c1)Nc1nnc(CSCCOc2ccc(Cl)cc2)s1` reads inactive: 10.6%; that for `COc1cccc(OCc2nc3ccccc3n2C)c1`, inactive: 27.3%; that for `CC(=O)c1cccc(NC(=O)COC(=O)CCC(=O)c2ccc(F)cc2)c1`, inactive: 10.4%. The result for `Oc1ccc2ccccc2c1C=Nc1ccccc1` reads inactive: -31.1%. As to `COc1ccccc1N1CCN(C(=O)CCCCCn2c(=O)[nH]c3ccsc3c2=O)CC1`, the “growth rescue (activation)” value is inactive: 15.4%. The result for `N#C/C(=C\c1ccc(F)cc1)C(=O)Nc1ccccn1` reads inactive: -30.5%; that for `C=CC[C@H]1CC(C)=C[C@H](CC=C)N1`, inactive: 12.5%.
